The results in this text go back to PubChem BioAssay (NCI).

Structures are written as SMILES.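 Exposure lasted 48 hours, with cells grown in 96-well plates and compounds tested at five concentrations. GI50: concentration for 50% inhibition of growth. TGI: total growth inhibition.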 Bounds are passed on as bounds.

The assay has as its system NCI-H322M lung. As to the kind of experiment: DTP human tumour cell line panel, 48 h.

In the case of `COc1cc2c(cc1OC)/C(=C\c1sc(Nc3ccc(O)cc3)nc1O)C(C(=O)O)=N2`, the GI50 (usually the concentration giving 50% growth inhibition) was 696 nM and the concentration for total growth inhibition (TGI) – broadly, the concentration at which net growth stops – is more than 100000 nM.
Consider `Cc1ccc(C(=O)NN2C(=O)/C(=C/C=C/c3ccc([N+](=O)[O-])o3)SC2=S)cc1`, for which the GI50 is 2230 nM and the TGI came out at 6180 nM.
